Measured values published in the supplement of paper PMC10441789.
This is one part of the list. Antibody binding of pooled human sera (four to six donors per pool; dilution not stated) to peptides of the Trypanosoma cruzi antigen TSSA on microarrays. Quantile-normalised fluorescence in arbitrary units, mean of duplicate arrays; higher = more binding. No active / inactive call. The uninfected pools are read here as the healthy donors of the same country. The strongest signals lie near the top of the scale (about 60,000).

What was measured:
Assay in all cases: antibody binding signal (normalised fluorescence) (arbitrary fluorescence units); higher = stronger serum antibody binding to peptide
[1] = test system: pooled sera of chronic Chagas disease patients, Argentina
Protocol: (§1)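 Microarray of 15-residue peptides over residues 30-55 of Trypanosoma cruzi TSSAII, each with 1 to 10 substitutions at naturally variable positions, probed with one serum pool per country.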

[2] = test system: pooled sera of chronic Chagas disease patients, Bolivia
Protocol: as §1

[3] = test system: pooled sera of chronic Chagas disease patients, Brazil
Protocol: as §1

[4] = test system: pooled sera of chronic Chagas disease patients, Colombia
Protocol: as §1

[5] = test system: pooled sera of chronic Chagas disease patients, Mexico
Protocol: as §1

[6] = test system: pooled sera of chronic Chagas disease patients, USA
Protocol: as §1

[7] = test system: pooled sera of uninfected people, Argentina
Protocol: as §1

[8] = test system: pooled sera of uninfected people, Bolivia
Protocol: as §1

[9] = test system: pooled sera of uninfected people, Brazil
Protocol: as §1

[10] = test system: pooled sera of uninfected people, Colombia
Protocol: as §1

[11] = test system: pooled sera of uninfected people, Mexico
Protocol: as §1

[12] = test system: pooled sera of uninfected people, USA
Protocol: as §1

Sequence | antibody binding signal [1] | antibody binding signal [2] | antibody binding signal [3] | antibody binding signal [4] | antibody binding signal [5] | antibody binding signal [6] | antibody binding signal [7] | antibody binding signal [8] | antibody binding signal [9] | antibody binding signal [10] | antibody binding signal [11] | antibody binding signal [12]
GTDNKPATGGAPSPS | 3970 | 19100 | 41600 | 1740 | 590 | 2470 | 248 | 1450 | 523 | 219 | 396 | 184
PPSGTEKKAAAGGTP | 29300 | 1380 | 15300 | 6290 | 4160 | 4240 | 983 | 428 | 2100 | 283 | 148 | 177
SGKEKKAAAGGAPSP | 2900 | 309 | 2400 | 5860 | 5420 | 5050 | 155 | 87.5 | 117 | 112 | 80.2 | 161
TPPSGTENKPAAGGT | 52100 | 48300 | 53400 | 370 | 9670 | 30900 | 7580 | 1740 | 1570 | 690 | 617 | 889
PPSGTDNKTATGETP | 35000 | 29800 | 42700 | 621 | 1970 | 9430 | 461 | 550 | 784 | 240 | 156 | 209
ENKTAAGETPSPPGA | 195 | 875 | 865 | 256 | 314 | 2310 | 170 | 220 | 214 | 124 | 177 | 376
KPAAGEAPSQPGASS | 10100 | 33500 | 43300 | 142 | 234 | 11100 | 204 | 127 | 155 | 105 | 159 | 162
KDNKAAAGETPSPPG | 252 | 201 | 7380 | 227 | 179 | 702 | 327 | 1940 | 206 | 191 | 127 | 1100
KDKKPATGEAPSPSG | 42400 | 11000 | 39800 | 152 | 175 | 30900 | 730 | 212 | 140 | 158 | 94.9 | 137
TPPSGTENKPAAGET | 50600 | 47000 | 50200 | 322 | 4570 | 32900 | 11400 | 1500 | 708 | 864 | 787 | 781
SGTEKKAAAGETPSQ | 744 | 795 | 3060 | 630 | 690 | 2010 | 109 | 603 | 146 | 754 | 177 | 108
TENKAAAGGAPSQPG | 34000 | 979 | 13500 | 2600 | 457 | 1820 | 224 | 128 | 179 | 174 | 145 | 247
DKKTATGGTPSPPGA | 494 | 751 | 539 | 3880 | 537 | 1480 | 281 | 105 | 348 | 734 | 182 | 132
TDNKAATGGAPSPSG | 467 | 459 | 1230 | 424 | 455 | 1150 | 228 | 290 | 1160 | 204 | 199 | 122
GKDNKAATGGAPSQP | 872 | 1210 | 11200 | 1600 | 1970 | 1840 | 226 | 257 | 89.2 | 144 | 71.3 | 83.9
TPPSGKEKKTAAGEA | 12900 | 451 | 610 | 1210 | 9270 | 1390 | 420 | 678 | 124 | 296 | 151 | 151
GKEKKAAAGGTPSPS | 3800 | 198 | 193 | 3630 | 1800 | 1980 | 88.4 | 76.5 | 490 | 114 | 85.4 | 110
KKTATGEAPSQSGAS | 2540 | 7870 | 12400 | 215 | 258 | 14500 | 357 | 193 | 113 | 105 | 117 | 392
GTDKKTAAGGAPSPS | 176 | 357 | 204 | 6320 | 748 | 648 | 200 | 214 | 143 | 184 | 189 | 118
DKKAAAGGAPSPSGA | 585 | 240 | 190 | 5110 | 745 | 801 | 227 | 109 | 160 | 113 | 102 | 124
ENKTAAGGAPSPPGA | 190 | 2260 | 381 | 4730 | 600 | 959 | 261 | 190 | 543 | 168 | 272 | 206
GKENKTATGGTPSQP | 3720 | 531 | 10200 | 9700 | 8240 | 14800 | 617 | 109 | 160 | 121 | 744 | 116
GKDKKTAAGEAPSQP | 658 | 3240 | 25200 | 544 | 667 | 3800 | 178 | 101 | 95.4 | 303 | 72.5 | 71.2
GKDKKTATGGAPSQP | 502 | 202 | 272 | 677 | 620 | 481 | 252 | 122 | 368 | 79.7 | 110 | 88.9
GKDKKTAAGETPSPP | 321 | 251 | 230 | 485 | 564 | 1220 | 156 | 109 | 90.6 | 223 | 91.5 | 176
